The whole screen tested about 52,000 compounds, of which about 4,300 (8.3%) were called active. Rule as the data show it: active = survival mostly below about 52% (no sharp cut-off); inactive = mostly above about 56%. The list shows a part of the results.

The test system of this assay is DeltatarO mutant. The experiment in a line: growth inhibition of S. aureus wild type versus tarO mutant, primary screen, teichoic acid synthesis inhibitors, RN4220, OD600 (AID 463173). The settings on record: OD600, 18 h, active compounds read low, screened at 18.75 µg/mL (by protocol).
As to `CC(=O)c1ccc(NC(=O)c2cnc(N3CCCC3)nc2C)cc1`, the survival is inactive: 78%.
Under `CCOc1cc(C#N)c(NC(=O)c2ccc(OC)c(S(=O)(=O)N3CCCCC3)c2)cc1OCC` stands inactive: 59%; under `O=C(Cn1c(=O)n(Cc2ccco2)c(=O)c2ccccc21)Nc1cccc(F)c1`, inactive: 96%.
Under `Cc1ccc(-n2c(-c3ccc(Br)cc3)nc3c(cnn3-c3ccccc3)c2=O)cc1` stands active: 39%; under `CCc1ccccc1NC(=O)Cn1c(=O)n(-c2ccccc2)c(=O)c2oc3ccccc3c21`, inactive: 63%; under `CC(C)(C)c1ccc(C(=O)N2CCC(C(=O)O)CC2)cc1`, inactive: 68%.
Under `COc1ccc(NC(=O)CSc2nncn3c2cc2occc23)c(OC)c1` stands inactive: 69%.
Regarding `NC(=O)c1ccccc1NC(=O)COCC(=O)O`, the survival was inactive: 55%.
Under `COc1ccc(-n2nnc(-c3nc(-c4ccc5c(c4)OCO5)no3)c2C)cc1Cl` stands inactive: 91%.
For the compound `Cn1c(CCc2nc3ccccc3[nH]2)nnc1SCC#N`, the survival is inactive: 82%.
Under `Cc1nn(-c2ccccc2)c2sc(C(=O)N(Cc3ccco3)C(C)C(=O)NC3CCCCC3)cc12` (stereo not given) stands active: 60%.
Take `Cc1ccccc1-c1nc(CS(=O)(=O)CC(=O)NCCCN2CCN(C)CC2)c(C)o1`: the survival is inactive: 77%.
Under `CCn1nnnc1SCC(=O)Nc1ccccc1` stands inactive: 90%; under `COc1ccc(C(=O)NCC(=O)OCc2cc(=O)n3nc(C4CCCCC4)sc3n2)cc1`, inactive: 90%.
For `CCOC(=O)c1c(C)oc2nc(C)nc(NCCc3ccc(OCC)cc3)c12` the value was inactive: 75%.
For `CC1=C(C(=O)NCc2cccc(Cl)c2)C2(CCCCCC2)OC1=O` the value was inactive: 95%; for `CC(=O)Nc1ccc(S(=O)(=O)N2CCC(n3c(C)nc4cccnc43)CC2)cc1`, inactive: 67%.
As for `CCC(C)NC(=O)Cn1c(=O)n(-c2cc(OC)cc(OC)c2)c(=O)c2ccccc21` (stereo not given), the survival was inactive: 89%.
For `CCOC(=O)c1ccc(NC(=O)CCc2c(C)nc3cc(-c4ccc(OC)cc4OC)nn3c2C)cc1`, the survival was inactive: 62%.
For `CCOCC(=O)Nc1nc2ccccc2s1`, the survival was inactive: 72%.
As to `CC(C)Oc1ccc(C(=O)N2CCC(c3nc4ccccc4s3)CC2)cc1`, the survival was inactive: 49%.
For `Cc1ccc(SCCNC(=O)CN(c2cccc(C)c2C)S(C)(=O)=O)cc1` the value was inactive: 57%; for `Cc1nc(N2CCOCC2)c2c(C(=O)N3CCN(c4cccc(C(F)(F)F)c4)CC3)c(C)oc2n1`, inactive: 105%; for `Cc1cccc2nc(-c3ccc(Cl)s3)c(Nc3ccc4c(c3)OCCO4)n12`, inactive: 93%.
For `COc1ccc(NC(=O)C(Cc2ccccc2)NS(=O)(=O)c2ccc3c(c2)oc(=O)n3C)c(OC)c1` (stereo not given) the value was inactive: 149%; for `COc1cc(Cl)c(NC(=O)CN2C(=O)c3cccnc3Sc3ccccc32)c(OC)c1`, inactive: 61%; for `CC(C)c1ccc(NC(=O)Cn2nnc(C(=O)NCCc3ccccc3)c2N)cc1`, inactive: 115%.
On to `Cc1nn(-c2ccccc2)c(-n2cccc2)c1C(=O)NCCCN1CCN(c2ccccc2F)CC1`, for which the survival was inactive: 63%.
Under `Cc1ccc(OCC(=O)OCc2cc(=O)n3ccsc3n2)cc1C` stands inactive: 76%.
For `COc1ccccc1N1CCN(c2ncc3c(n2)CCN(Cc2ccccc2C)C3)CC1` the value was inactive: 88%.
Under `Cc1nc2ccc(S(=O)(=O)NCC(=O)NCc3ccc(Cl)cc3)cc2s1` stands inactive: 87%; under `COc1ccc(OC(=O)c2cc(-c3ccc4c(c3)OCCO4)on2)cc1`, inactive: 101%; under `Cc1ccc(C)c(NC(=O)CSc2cn(CC(=O)N3CCCCC3)c3ccccc23)c1`, inactive: 97%.
For `CCOc1ccc(NC(=O)Cn2c(=O)nc(-c3ccccc3)c3ccccc32)cc1`, the survival is inactive: 85%.
Under `CCOc1ccc(CN(CCc2ccc3c(c2)OCO3)Cc2cc(OC)cc(OC)c2)cc1` stands inactive: 58%.
For `Cc1ccc2c(CNCCc3ccco3)c(C(=O)O)n(Cc3ccc(F)cc3)c2c1` the value was inactive: 59%; for `COc1ccc(NC(=O)CCCc2nnc3n(C(C)C)c(=O)c4sccc4n23)cc1Cl`, inactive: 93%.
Consider `CCOc1ccc(NC(=O)Cn2cc(C(=O)C3CC3)c3ccccc32)cc1`, for which the survival is inactive: 94%.
For `CCN1CCC(N(Cc2ccc(F)cc2)C(=O)Nc2ccc(C)c(F)c2)CC1` the value was inactive: 94%.
Under `COc1ccc(C(=O)Nc2ccc(-c3nc4cc(C)ccc4o3)c(O)c2)cc1` stands inactive: 70%.
For `O=C(CSc1nccn1Cc1ccco1)Nc1ccc(OC(F)(F)F)cc1` the value was inactive: 77%; for `Cc1cc(=O)[nH]c2nnc(SCc3cccc(C(F)(F)F)c3)n12`, inactive: 79%; for `Cc1ccccc1CSc1nc2c([nH]c3ccccc32)c(=O)n1C`, inactive: 89%.
`CCOC(=O)c1cc(S(=O)(=O)Nc2ccccc2OCC)[nH]n1`: the survival is inactive: 72%.
Regarding `CCCc1cc(=O)[nH]c(SCc2nc(-c3ccccc3F)no2)n1`, the survival is inactive: 131%.
As for `COc1ccc(-n2c(=O)c3c4c(sc3n3c(SC(C)C)nnc23)COC(C(C)C)C4)cc1` (stereo not given), the survival is inactive: 66%.
As to `CC1=[N+](CCC#N)CC(C)(C)C1`, the survival is inactive: 111%.
Regarding `CCCn1c(=NC(=O)c2c(-c3c(F)cccc3Cl)noc2C)c(C(=O)OCC)cc2c(=O)n3ccccc3nc21`, the survival is inactive: 164%.
For the compound `C=CCn1c(N)c(C(N)=O)sc1=S`, the survival is inactive: 81%.
Under `CC(=O)c1cccc(Nc2ccc3cc(S(=O)(=O)N4CCCC4)ccc3n2)c1` stands inactive: 101%; under `COc1ccc(NC(=O)c2cc(=O)c3ccc(C)c(C)c3o2)cc1Cl`, inactive: 65%; under `Cc1ccc(-n2ncc(C(=O)NCCN3CCc4ccccc4C3)c2C2CCNCC2)cc1C`, inactive: 95%.
For `CCOc1ccccc1NC(=O)c1nn(C)c2c1CSc1ccccc1-2` the value was inactive: 78%; for `COc1ccc(C)cc1NC(=O)CN1C(=O)COc2ccc(S(=O)(=O)NC3CCCC3)cc21`, inactive: 87%; for `CCOc1ccc(-c2csc(-c3c(N)c(C(=O)c4ccc5c(c4)OCO5)n4ccccc34)n2)cc1`, inactive: 104%.
For `Cn1nc(-c2ccc(N3CCCCC3)c(NC(=O)c3ccc(Cl)cc3)c2)c2ccccc2c1=O` the value was inactive: 66%; for `CN(C)CCNC(=O)c1ccc(Cn2c(=O)c3cccn3c3cccnc32)cc1`, inactive: 54%.
With `Cc1ccc(CC(=O)NC2CCSC2=O)cc1` (stereo not given), the survival is inactive: 104%.
For `Cc1cccc(NC(=O)c2oc3ccc(S(=O)(=O)N4CCC5(CC4)OCCO5)cc3c2C)c1C` the value was inactive: 116%; for `Cc1cc(Nc2ccccc2O)c2ccccc2n1`, inactive: 103%.
Under `CC(=O)c1ccc(N2CCN(c3ncnc4c3cnn4C)CC2)cc1` stands inactive: 62%.
For `Cc1ccc2c(c1)-c1ncc(C(=O)c3cc(Br)ccc3O)cc1CO2` the value was inactive: 62%; for `COc1ccc(-n2nc(C(=O)Nc3cccc(C)n3)c3c4ccccc4n(C)c3c2=O)cc1`, inactive: 63%; for `CC1CCN(S(=O)(=O)c2ccc3c(c2)N(CC(=O)NCCCN2CCCC(C)C2)C(=O)CS3)CC1` (stereo not given), inactive: 75%.
For `Cc1cccc(CNC(=O)c2ccc(NC(=O)N3CCSc4ncccc43)cc2)c1`, the survival is inactive: 72%.
Turning to `CCOc1ccc(NC(=O)C(C)Sc2nc3ncccc3o2)cc1` (stereo not given), the survival is inactive: 90%.
Under `Cc1cc(C)cc(NC(=O)Cn2c(=O)n(Cc3ccc4c(c3)OCO4)c(=O)c3oc4ccccc4c32)c1` stands inactive: 58%; under `CC(C)C(c1nnnn1C1CCCC1)N1CCN(C(=O)c2ccco2)CC1` (stereo not given), inactive: 86%.
For the compound `N#CCSc1nc2ccccc2c(=O)n1-c1ccccc1`, the survival was inactive: 101%.
With `Cc1cccc(C(=O)Nc2nc(-c3nnn(-c4cc(C)ccc4C)c3C)ns2)c1`, the survival was inactive: 94%.
For `O=C(c1cnn2c1NC(c1cccs1)CC2C(F)(F)F)N1CCSCC1` (stereo not given) the value was inactive: 74%; for `O=C(Cn1c(=O)n(Cc2nc(-c3ccccc3)no2)c(=O)c2cc3c(cc21)OCO3)Nc1cccc(C(F)(F)F)c1`, inactive: 91%; for `COc1ccc(-c2ccc(CCC(=O)O)n2-c2cc(Cl)ccc2O)cc1`, inactive: 52%.
Under `CCOC(=O)c1c(C)[nH]c(C)c1S(=O)(=O)N(C)CC(=O)Nc1cccc(C(F)(F)F)c1` stands inactive: 92%; under `CCOC(=O)C1CCN(C(=O)Cn2ncc3c([nH]c4ccccc43)c2=O)CC1`, active: 25%; under `COc1cccc(C2CC(=O)Nc3c2c(=O)n(C)c2nc4ccccc4n32)c1` (stereo not given), inactive: 67%.
As for `CSc1cccc(NC(=O)CN2C(=O)COc3ccc(S(=O)(=O)N4CCC(C)CC4)cc32)c1`, the survival is inactive: 88%.
`Cc1ccc(C)c(NC(=O)Cn2ccn(-c3ccc(F)cc3)c(=O)c2=O)c1`: the survival was inactive: 104%.
For `Cc1cc(Cl)nc(SCC(=O)c2ccccc2)n1` the value was inactive: 50%; for `Cc1ccccc1CNC(=O)c1ccc2[nH]c(C)c(C)c2c1`, inactive: 98%; for `COCCN(C(C)=O)c1nnc(-c2cccnc2)s1`, inactive: 88%.
With `CC(C)(C)c1ccccc1NC(=O)c1cnn2c(C(F)F)cc(-c3ccccc3)nc12`, the survival was inactive: 64%.
In the case of `C=CCSc1nc2ccccc2c(=O)n1CC1CCCO1` (stereo not given), the survival was inactive: 80%.
`CN(C)S(=O)(=O)c1ccc(S(=O)(=O)N(CC(=O)Nc2ccccc2)C2CC2)cc1`: the survival was inactive: 94%.
With `COc1ccccc1NC(=O)CSc1oc(-c2ccc(F)cc2)nc1S(=O)(=O)c1ccc(Br)cc1`, the survival is active: 49%.
For `Cn1c(=O)c2c(SCC(=O)Nc3ccc(F)cc3F)nc(C3CCCC3)nc2n(C)c1=O`, the survival was inactive: 93%.
In the case of `CCCCCOc1ccc(C(CC(N)=O)CC(=O)O)cc1` (stereo not given), the survival was inactive: 96%.
For `Cc1cc(N2CCC(C(=O)NCCC(C)C)CC2)n2nc(C)c(-c3ccc(Cl)cc3)c2n1` the value was inactive: 82%; for `Cc1ccc(CN(C(=O)c2ccccc2[N+](=O)[O-])c2ccccn2)cc1`, inactive: 54%.
For `CCC(C)NC(=O)Cn1c(-c2cccs2)cc2cc(Cl)ccc21` (stereo not given) the value was inactive: 94%.
